Measurements published in PubChem BioAssay AID1240 (Sanford-Burnham Center for Chemical Genomics, 2008).
Screen size: about 50,000 compounds; about 800 (1.6%) showed an effect of 50% or more. The list shows a part of the results.

The compounds below were run against Bcl-2-like protein 10 (Homo sapiens) (UniProt Q9HD36) (assay: Phenotype converters, Bcl-B/TR3 peptide binding displacement, primary biochemical FP (AID 1240;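 note: 0% = Bcl-B with tracer peptide and DMSO and 100% = tracer peptide lacking Bcl-B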)). Conditions: GST-Bcl-B / FITC-TR3 peptide fluorescence polarization; stronger effect = higher value; compound at 3.75 mg/L.
Sequence of UniProt Q9HD36 (Q9HD36 whole entry, looked up): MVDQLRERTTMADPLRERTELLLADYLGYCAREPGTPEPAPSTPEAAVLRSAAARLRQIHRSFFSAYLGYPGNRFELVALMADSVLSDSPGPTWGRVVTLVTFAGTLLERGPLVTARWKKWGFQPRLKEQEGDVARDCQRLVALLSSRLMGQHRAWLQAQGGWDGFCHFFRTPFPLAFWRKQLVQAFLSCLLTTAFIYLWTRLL
Compound `N#CC1=C(N)Oc2cc(O)ccc2C1C1CC=CCC1` (stereo not drawn) has a displacement of 17.5%.
In the case of `NS(=O)(=O)c1ccc(CNC(=O)c2ccccc2Br)cc1`, the displacement is reported as 9%.
Work on `O=C(NCC1CCCO1)Nc1cccc(Cl)c1` (stereo not drawn) yielded a displacement of 10.4%.
For `O=C1C2C(C(=O)N1/N=C/c1cccc(Cl)c1)C1C=CC2C12CC2` (stereo not drawn), the displacement was -6.1%.
For `COc1cccc(C(=O)Nc2sc3c(c2C#N)CC(C)(C)OC3)c1`, the displacement was -3.5%.
In the case of `COc1cc(/C=C2\C=C(c3ccc(C)cc3)OC2=O)ccc1OC(C)=O`, the displacement is reported as 59.2%.
In the case of `O=C1NCCN/C1=C\C(=O)c1ccc(F)cc1`, the displacement is reported as -4.5%.
Work on `CCOc1cc(/C=C2/C(=O)NC(=O)N(c3ccccc3)C2=O)cc(Br)c1O` yielded a displacement of 14.7%.
Work on `COc1cc(OC)c(OC)cc1CN1CCN(S(C)(=O)=O)CC1` yielded a displacement of 10.5%.
Compound `O=C(N=Nc1c(O)n(Cc2ccccc2)c2ccccc12)c1ccccc1[N+](=O)[O-]` has a displacement of 1.9%.
Compound `COC(=O)CCN(C(=O)c1ccc(F)cc1)c1ccccn1` has a displacement of -12%.
With `COCCOC(=O)c1ccc(NC(=O)C(C)Oc2ccc(Cl)cc2C)cc1` (stereo not drawn) the displacement was -17.3%.
`COc1ccccc1NC(=O)c1ccc(CN(c2ccc(C)c(C)c2)S(C)(=O)=O)cc1` was tested, and the displacement was 4.5%.
In the case of `O=C1OC(c2ccccc2)=N/C1=C/c1c(F)c(F)c(F)c(F)c1F`, the displacement is reported as -3.5%.
Compound `O=C(O)CSc1ccc(I)cc1C(=O)O` has a displacement of -5.7%.
`O=c1oc(-c2ccccc2Cl)nc2c1cnn2-c1ccccc1` showed a displacement of 3.1%.
`COc1cccc(/C=C2\SC(N3CCCC3)=NC2=O)c1` showed a displacement of -2.9%.
Work on `COc1cccc(C2NC(=O)NC(C)=C2C(=O)OCCSC)c1OC` (stereo not drawn) yielded a displacement of 8.4%.
Work on `O=C(/C=C(\O)c1ccc2c(c1)OCO2)C(F)(F)F` yielded a displacement of -7%.
In the case of `CCOC(=O)C1=C(C)NC(=O)CC1c1ccccc1I` (stereo not drawn), the displacement is reported as -10.7%.
`Cc1ccc(C(=O)N/C(=C\c2cccc([N+](=O)[O-])c2)C(=O)NCc2ccncc2)cc1` gave a displacement of 9.4%.
`O=C(/C=C/c1ccccc1Cl)Nc1ccc(Cl)cn1` gave a displacement of 5.9%.
Work on `O=C(/C=C/c1cccc(C(F)(F)F)c1)Nc1cccc(C(F)(F)F)c1` yielded a displacement of 12.8%.
Work on `CCn1c2ccccc2c2cc(/C=N\NC(=O)c3cccc(C)c3)ccc21` yielded a displacement of 23.8%.
Compound `O=C(O)c1cc(NC(=O)c2ccco2)cc(C(=O)O)c1` has a displacement of 9%.
Work on `CN(C)/C=C1/CCc2c([nH]c3ccccc23)C1=O` yielded a displacement of 9.1%.
`Cc1cccc(C)c1OCC(O)CN1CCC(C)CC1` (stereo not drawn) gave a displacement of 15.9%.
Work on `CC(Nc1n[nH]c(=O)[nH]c1=O)C(=O)N/N=C/c1ccccc1Br` (stereo not drawn) yielded a displacement of -12.3%.
Work on `Cc1cc(C(=O)Nc2ccc3ncccc3c2)ccc1[N+](=O)[O-]` yielded a displacement of -4.1%.
For `Cc1ccc(OCCCCN2CCCCC2)c(Cl)c1`, the displacement was 3.8%.
In the case of `O=C(O)CCC(=O)N1N=C(c2cccs2)CC1c1ccccc1Cl` (stereo not drawn), the displacement is reported as -8.4%.
`CCc1nn2c(C)c(C)c(C)nc2c1C` showed a displacement of -2.3%.
Work on `O=c1n(-c2ccccc2)c(=O)n2n1C1c3ccccc3C2c2ccccc21` yielded a displacement of 3.9%.
`CCN(CC)Cc1cc2ccccc2c2c1COC2` was tested, and the displacement was -17.2%.
With `O=C1NC(=S)S/C1=C/c1ccc(OCc2cccc(C(=O)O)c2)cc1` the displacement was 14.1%.
In the case of `NCCCNc1ccc(C(F)(F)F)cc1[N+](=O)[O-]`, the displacement is reported as -12.5%.
`COc1ccccc1N(CC(=O)N1CCCC1)S(=O)(=O)c1ccccc1` gave a displacement of 1.7%.
With `COc1cccc2cc(-c3csc(Nc4ccccc4C)n3)c(=O)oc12` the displacement was 13.8%.
For `CC1=CC(C)(C)N(Cc2ccc([N+](=O)[O-])cc2)c2ccc(C)cc21`, the displacement was 1.8%.
Compound `Cc1cc(C(=O)N/N=C/c2c(C)[nH]c3ccccc23)n[nH]1` has a displacement of -7.4%.
`O=C(CSc1nsc(SCC(=O)N2CCCCC2)n1)N1CCCCC1` gave a displacement of 1.1%.
`COc1ccc(CC(=O)Nc2sc3c(c2C(=O)OC(C)C)CCCCC3)cc1` showed a displacement of -0.2%.
Compound `Oc1ccc(Cl)cc1/C=N/Nc1nc2ccccc2s1` has a displacement of -6%.
`Cc1cccc(C(=O)Nc2ccc(NC(=O)Cc3ccccc3)cc2)c1` gave a displacement of 6.6%.
`COC(=O)c1ccc(N2C(=O)CC(SC(=NCCc3ccccc3)Nc3ccccc3)C2=O)cc1` (stereo not drawn) was tested, and the displacement was -9.4%.
Work on `Cc1cc(/C=C2/SC(=O)NC2=O)c(-c2ccccc2)n1-c1ccccc1` yielded a displacement of -9.6%.
For `CC1CCCN(C(=O)Nc2ccc(F)cc2)C1` (stereo not drawn), the displacement was -2.3%.
Compound `Cc1ccc(N2C(=O)CSC23C(=O)Nc2ccccc23)cc1Cl` (stereo not drawn) has a displacement of 15.2%.
`COc1ccc(OCC(=O)N2c3ccccc3C(Nc3ccccc3)CC2C)cc1` (stereo not drawn) gave a displacement of 5.1%.
Work on `COc1ccc(C2C=C(Nc3ccccc3)C(=O)N2c2ccccc2)c(OC)c1` (stereo not drawn) yielded a displacement of 7.9%.
For `O=[N+]([O-])c1ccc(C(=S)N2CCCCC2)cc1`, the displacement was -9.7%.
Compound `CCC(C)OC(=O)C1=C(C)NC(=O)NC1c1ccccc1` (stereo not drawn) has a displacement of 5.1%.
`COc1ccc(/C=C2\SC(=O)NC2=S)cc1` showed a displacement of 67.8%.
`COc1cccc(N2C(=O)C3C4C=CC(C4)C3C2=O)c1` (stereo not drawn) gave a displacement of -3.8%.
Compound `CC(=O)CC(=O)Nc1ccc(Cl)c(Cl)c1` has a displacement of 3%.
In the case of `O=C(N/N=C/c1ccc2c(c1)OCO2)c1ccc(CO)nc1`, the displacement is reported as 5.9%.
With `CC(C)c1ccc(/C=C2\SC(=Nc3ccc(F)cc3)NC2=O)cc1` the displacement was 11.9%.
Compound `COc1ccc(/C=C2/C=C(c3ccccc3)OC2=O)c(OC)c1` has a displacement of -30%.
For `O=C1C2CCCC1C(c1ccc3c(c1)OCO3)NC2c1ccc2c(c1)OCO2` (stereo not drawn), the displacement was 11.9%.
For `Cc1cc(NC(=O)c2ccc(C(C)(C)C)cc2)ccc1NC(=O)c1ccco1`, the displacement was -5.2%.
Compound `Cc1ccc(OCC(=O)NC2CC(C)(C)NC(C)(C)C2)c(Br)c1` has a displacement of -0.3%.
For `Cc1cc(O)c(C(C)C)cc1NC(=O)c1cc(C(C)(C)C)oc1C`, the displacement was -6.7%.
`Cc1sc(NC(=O)/C=C/c2ccccc2)c(C(N)=O)c1C` showed a displacement of 7.9%.
Work on `COc1ccc(N(CC(=O)NCc2ccccc2)S(=O)(=O)c2ccc(C)cc2)cc1OC` yielded a displacement of -7.7%.
`Cn1c(Sc2nc3ccc([N+](=O)[O-])cc3s2)nc2sc3c(c2c1=O)CCCC3` was tested, and the displacement was -10.3%.
`CNc1nc(C)nc(-n2nc(C)cc2C)n1` was tested, and the displacement was -13.5%.
For `CC12C(=O)C(C(c3ccccc3)NC1c1ccccc1)C(c1ccccc1)NC2c1ccccc1` (stereo not drawn), the displacement was 11%.
`C=CCNC(=O)CN(c1ccccc1OC)S(=O)(=O)c1ccccc1` showed a displacement of 3.3%.
`O=C(NCC1CCN(C(=O)c2cccc(F)c2)CC1)c1cccc(F)c1` was tested, and the displacement was 7.8%.
For `Cc1nc2cc(-c3ccccc3)nn2c(C)c1C`, the displacement was -6.7%.
`COc1ccc(NC(=O)CN(c2cccc(Cl)c2)S(C)(=O)=O)c(OC)c1` showed a displacement of -0.9%.
For `CCN(CC)CCCNC(=O)c1cccc(OC)c1`, the displacement was -4.2%.
Compound `COc1ccc(C2CC(=O)C3=C(C2)Nc2ccccc2NC3c2ccc(Br)s2)cc1` (stereo not drawn) has a displacement of -2.2%.
